Laboratory results: publication doi:10.1101/2025.08.09.669456 (bioRxiv, 2025)

What was measured:
complement C3 = complement C3 (human, UniProt P01024 23-667; P01024 part only, Cys1010–Gln1013 thioester); test: cryo-EM structure
complement C3b = complement C3b (human, UniProt P01024 23-667; P01024 part only); test: cryo-EM structure

binding result (complement C3): binds
binding result (complement C3b): binds
B1: factor B fragment Bb (S699A) (enzyme, human, UniProt P00751 260-764, looked up)
chain: KIVLDPSGSMNIYLVLDGSDSIGASNFTGAKKCLVNLIEKVASYGVKPRYGLVTYATYPKIWVKVSEADSSNADWVTKQLNEINYEDHKLKSGTNTKKALQAVYSMMSWPDDVPPEGWNRTRHVIILMTDGLHNMGGDPITVIDEIRDLLYIGKDRKNPREDYLDVYVFGVGPLVNQVNINALASKKDNEQHVFKVKDMENLEDVFYQMIDESQSLSLCGMVWEHRKGTDYHKQPWQAKISVIRPSKGHESCMGAVVSEYFVLTAAHCFTVDDKEHSIKVSVGGEKRDLEIEVVLFHPNYNINGKKEAGIPEFYDYDVALIKLKNKLKYGQTIRPICLPCTEGTTRALRLPPTTTCQQQKEELLPAQDIKALFVSEEEKKLTRKEVYIKNGDKKGSCERDAQYAPGYDKVKDISEVVTPRFLCTGGVSPYADPNTCRGDAGGPLIVHKRSRFIQVGVISWGVVDVCKNQKRQKQVPAHARDFHINLFQVLPWLKEKLQDEDLGFL
